Measurements reported in PubChem BioAssay (NCATS).
Where “and” joins values, the source holds several entries; their conditions need not be identical. Equal entries are not always repeated. Inconclusive means that the source gave no clear call. Such entries were picked first, then a sample of the others. Potencies of inconclusive entries are doubtful fits and often do not repeat. Calls of active or inactive are those of the source. Calls follow the shape of the dose curve; as a rule, active = well fitted activation curve with a large enough effect; inconclusive = small, poorly fitted or top-dose-only effect; inactive = no such curve, though single readings can be large or run the other way. Non-standard residues stand in square brackets, D forms with d. Residues, ends and D or L forms follow the SMILES beside them. pGlu = O=C1CC[C@@H](C(=O)O)N1

Molecular target: Cellular tumor antigen p53 (Homo sapiens) (UniProt P04637)
UniProt P04637, sequence (P04637 whole entry, looked up): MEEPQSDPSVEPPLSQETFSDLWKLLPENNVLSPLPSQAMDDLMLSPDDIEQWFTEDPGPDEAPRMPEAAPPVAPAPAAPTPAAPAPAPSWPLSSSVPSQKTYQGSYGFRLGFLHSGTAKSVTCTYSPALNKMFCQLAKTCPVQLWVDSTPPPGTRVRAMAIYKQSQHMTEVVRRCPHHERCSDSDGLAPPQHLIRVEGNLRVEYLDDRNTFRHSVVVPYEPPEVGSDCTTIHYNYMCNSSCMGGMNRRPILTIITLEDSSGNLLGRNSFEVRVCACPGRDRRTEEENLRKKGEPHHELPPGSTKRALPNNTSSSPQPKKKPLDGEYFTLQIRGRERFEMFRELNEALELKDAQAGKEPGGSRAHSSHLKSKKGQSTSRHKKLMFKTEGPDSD
Assay: Primary qHTS for small molecule compounds that upregulate eGFP-tagged delta133p53alpha (in N-terminal) cells. (AID 2060322); also: nearly all actives have a fitted effect of over 75% in size;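 as to activation: series mostly up to about 56 µM; 0% = DMSO vehicle and 100% = reference activator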
Conditions: NCI-H358 eGFP-delta133p53alpha fluorescence, 24 h; activation: hits give high values
Outline: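 NCI-H358 cells pre-induced 24 h with 10 ng/ml doxycycline to express N-terminal eGFP-delta133p53alpha, then dosed 24 h at 37C without doxycycline; fixed, Hoechst-stained, GFP intensity by laser scanning cytometry, normalized to DMSO (0%) and 57.5 uM 5-azacytidine (100%).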
Potency is read from the fitted curve at half-maximal effect; tags tell the direction and shape of the fitted curve.

For `CN1CCN(CCC(=O)N2c3ccccc3Sc3ccc(C(F)(F)F)cc32)CC1`, the activation was inactive: 18.6%.
For `C[C@H]1CC[C@@]2(OC1)O[C@H]1CC3[C@@H]4CC[C@@H]5C[C@@H](O[C@@H]6O[C@H](CO)[C@@H](O[C@@H]7O[C@@H](C)[C@H](O)[C@@H](O)[C@H]7O)[C@H](O)[C@H]6O[C@@H]6O[C@H](CO)[C@@H](O)[C@H](O)[C@H]6O)CC[C@]5(C)C4CC[C@]3(C)[C@H]1[C@@H]2C` (stereo partly drawn), the Potency was inconclusive: 4.04 µM [activator, partial curve].
In the case of `C=C1C(=O)O[C@@H]2[C@H]3C(C)=CC(=O)C3=C(C)CC[C@@H]12`, the Potency is reported as active: 10.7 µM.
With `OCCN1C[C@H](O)[C@@H](O)[C@H](O)[C@H]1CO` the activation was inactive: -10.9%.
`C=C(C)C(=O)OCC(O)CO` (stereo not drawn) was tested, and the Potency was inconclusive: 38.9 µM [activator, single point].
`C/C=C/C(=O)OC1/C=C/C(O)C(OC(C)=O)CCC(=O)OC1C` (stereo not drawn) was tested, and the Potency was inconclusive: 16.6 µM [activator, partial curve, poor fit].
In the case of `CC1OC(OC2C(OC(=O)[C@]34CCC(C)(C)C[C@H]3C3=CCC5[C@@]6(C)CC[C@H](OC7OC(C(=O)O)C(O)C(O)C7O)C(C)(C)C6CC[C@@]5(C)[C@]3(C)CC4O)OC(CO)C2O)C(O)C(O)C1OC1OCC(O)C(O)C1O` (stereo partly drawn), the activation is reported as inactive: -3.82%.
`N#Cc1ccc(COc2ccc(-c3cccc4nc(NC(=O)C5CC5)nn34)cc2)cn1` was tested, and the Potency was inconclusive: 21.3 µM [activator, single point].
`O=C(O)Cc1cn(-c2ccccc2)nc1-c1ccc(Cl)cc1` was tested, and the Potency was inconclusive: 15.5 µM [activator, partial curve].
For `O=c1ccc2ccccc2o1`, the activation was inactive: 9.21%.
With `COc1c2ccoc2cc2oc(CO[C@@H]3O[C@H](CO)[C@@H](O)[C@H](O)[C@H]3O)cc(=O)c12` the activation was inactive: -23.2%.
`C=C1C(=O)OC2/C=C(\C)CC3C=C(CC/C=C(\C)CCC12)C(=O)O3` (stereo not drawn) was tested, and the Potency was active: 6.59 µM.
With `O=C(NCc1ccc(OC(F)(F)F)cc1)C1c2ccccc2C(=O)N1C1CCOCC1` (stereo not drawn) the activation was inactive: -5.73%.
`O=C(NCCN1CCC(n2c(=O)[nH]c3ccccc32)CC1)c1ccc2ccccc2c1` was tested, and the activation was inactive: -1.43%.
For `Cc1cc(-c2nnc3n2CCCCC3)c(C)n1-c1ccccc1`, the Potency was inconclusive: 2.43 µM [activator, full curve].
`COc1cc(C(=O)NC(=S)Nc2cccc(NC(=O)c3ccccc3)c2)cc(OC)c1OC` was tested, and the Potency was inconclusive: 23.9 µM [activator, single point].
For `COc1cc2ncnc(Nc3cccc(O)c3)c2cc1OC`, the Potency was inconclusive: 13.5 µM [activator, partial curve].
For `CCNC(=O)[C@@H]1CCCN1C(=O)[C@H](CCCN=C(N)N)NC(=O)[C@H](CC(C)C)NC(=O)[C@@H](CC(C)C)NC(=O)[C@H](Cc1ccc(O)cc1)NC(=O)[C@H](CO)NC(=O)[C@H](Cc1c[nH]c2ccccc12)NC(=O)[C@H](Cc1cnc[nH]1)NC(=O)[C@@H]1CCC(=O)N1`, the activation was inactive: 7%.
With `C[C@@H]1O[C@@H](OC[C@H]2O[C@@H](OCCc3ccccc3)[C@H](O)[C@@H](O)[C@@H]2O)[C@H](O)[C@H](O)[C@H]1O` the activation was inactive: -8.4%.
In the case of `COc1c2cc(c(O)c1OC)CCCCC(O)CCc1ccc(O)c-2c1` (stereo not drawn), the Potency is reported as inconclusive: 13.2 µM [activator, single point].
For `CC[C@@H]1C[C@]1(NC(=O)[C@@H]1C[C@@H]2CN1C(=O)[C@H](C(C)(C)C)NC(=O)OCC(C)(C)CCCCc1cccc3c1CN(C3)C(=O)O2)C(=O)NS(=O)(=O)C1CC1`, the Potency was inconclusive: 33.8 µM [activator, single point].
`C=C1C[C@@]23CCC4[C@@](C)(CCC[C@@]4(C)C(=O)OC)C2CC[C@@H]1C3` (stereo partly drawn) was tested, and the activation was inactive: -32.8%.
In the case of `O=C(O)C[C@H]1CCC(=O)[C@@H]1C/C=C\CCO`, the Potency is reported as inconclusive: 7.57 µM [activator, single point].
`COC(=O)C1=CO[C@@H](O[C@@H]2O[C@H](CO)[C@@H](O)[C@H](O)[C@H]2O)[C@H]2[C@@H]1[C@H](O)[C@H](O)[C@]2(C)O` was tested, and the Potency was inconclusive: 0.131 µM [activator, full curve].
`CC(=O)OC1C(O)CC2(C)C(CCC3(C)C2CC=C2C4C5(CCC(CO[C@@H]6O[C@H](CO)[C@@H](O)[C@H](O)[C@H]6O)(OC5=O)C4(C)O)C(O)CC23C)C1(C)C` (stereo partly drawn) was tested, and the activation was inactive: -11.5%.
For `C[C@@H]1C[C@@H](O)[C@@]2(CO)C(CO)=CCC[C@@H]2[C@@]12C[C@@H](c1ccoc1)OC2=O`, the activation was inactive: 21.4%.
For `CN(C)CCCOC1(Cc2ccccc2)CCCCCC1`, the Potency was inconclusive: 0.11 µM [activator, full curve].
In the case of `COC(=O)C12C(=O)C(C)=C(O)C1(C)C(C)=CC1C3(CO)CCC(O)C(C)(C)C3CCC12C` (stereo not drawn), the Potency is reported as inconclusive: 10.4 µM [activator, single point].
For `O=c1[nH]sc2cc(Cl)ccc12`, the Potency was inconclusive: 38.9 µM [activator, single point].
`CC(C)NCC(O)c1ccc2ccccc2c1` (stereo not drawn) was tested, and the activation was inactive: -2.82%.
In the case of `C[C@@H](Oc1ccc2[nH]nc(C=Cc3cnn(CCO)c3)c2c1)c1c(Cl)cncc1Cl`, the Potency is reported as inconclusive: 48.5 µM [activator, single point].
For `CC(C)CC(=O)c1c(O)cc2c(c1O)C(CC(C)C)C1=C(O2)C(C)(C)C(=O)C(C)(C)C1=O` (stereo not drawn), the Potency was inconclusive: 18.5 µM [activator, single point].
For `C=C1C(=O)OC2C1CCC1(C)C(O)CC=C(C)C21` (stereo not drawn), the Potency was inconclusive: 23.9 µM [activator, single point].
`CCOc1ccc(-n2c([C@@H](C)N(Cc3cccnc3)C(=O)Cc3ccc(OC(F)(F)F)cc3)nc3ncccc3c2=O)cc1` was tested, and the Potency was active: 19 µM.
With `CC[C@@H]1C(=O)O[C@]23C=C[C@@H]4C(C(=O)OC)=CO[C@H](O[C@@H]12)[C@@H]43` the Potency was inconclusive: 15.1 µM [activator, single point].
In the case of `O=C(/C=C/c1ccccc1)OCC1=CC[C@@H]2C(C(=O)O)=CO[C@@H](O[C@@H]3O[C@H](CO)[C@@H](O)[C@H](O)[C@H]3O)[C@H]12`, the Potency is reported as inconclusive: 18.5 µM [activator, single point].
For `C1CCN2CC3C[C@@H](CN4CCCC[C@@H]34)[C@H]2C1`, the activation was inactive: -23.2%.
In the case of `N#CC(c1ccnc(NCCc2cccnc2)n1)c1nc2ccccc2s1` (stereo not drawn), the Potency is reported as inconclusive: 24.3 µM [activator, partial curve, poor fit].
With `CN1CCN(C2=Nc3ccccc3Nc3ccc(Cl)cc32)CC1` the activation was inactive: 8.59%.
`C[C@@H]1CC[C@]2(C)C(C[C@@H](O)[C@H](O)[C@]23CO3)[C@@]1(C)CCc1ccoc1` (stereo partly drawn) was tested, and the Potency was inconclusive: 1.48 µM [activator, full curve, poor fit].
In the case of `COC1CC(=O)C23C(=O)NC(CC(C)C)C2C(C)C(C)=CC3/C=C(\C)CCC1O` (stereo not drawn), the Potency is reported as inconclusive: 9.28 µM [activator, single point].
With `CO[C@H]1/C=C/[C@@](C)(O)/C=C/C(=O)O[C@H](C)[C@@H](C)CC/C=C/1C` the Potency was inconclusive: 16.6 µM [activator, partial curve, poor fit].
With `COc1cc(OC)cc(-c2ccc3c(-c4ccc(F)cc4)[nH]nc3n2)c1` the Potency was inconclusive: 37.9 µM [activator, single point].
With `CCc1nnc(NS(=O)(=O)c2ccc(NC(=S)NC(=O)/C=C/c3ccc(F)cc3)cc2)s1` the Potency was inconclusive: 4.26 µM [activator, partial curve, poor fit].
With `COc1cc(F)c(F)c(Nc2ccc(I)cc2F)c1NS(=O)(=O)C1(CC(O)CO)CC1` (stereo not drawn) the Potency was inconclusive: 37.9 µM [activator, single point].
For `OC1COC(OCC2OC(OCCc3ccccc3)C(O)C(O)C2O)C(O)C1O` (stereo not drawn), the activation was inactive: -11.5%.
For `COc1cc(C(=O)NCCCCCC(=O)O)cc(OC)c1OC`, the activation was inactive: -9.6%.
In the case of `C[C@]12CC[C@@H]3c4ccc(O)cc4CC[C@H]3[C@H]1CC[C@H]2O`, the Potency is reported as inconclusive: 43.2 µM [activator, single point].
With `O=C(/C=C/c1ccc(O)c(O)c1)O[C@@H]1C[C@@](OC(=O)/C=C/c2ccc(O)c(O)c2)(C(=O)O)C[C@@H](O)[C@@H]1O` the activation was inactive: 11.9%.
With `CC(O)(C(=O)C1CC1(CO)COC1OC(CO)C(O)C(O)C1O)C1C(O)CC2C3CC=C4CC(O)CC(O)C4(C)C3C(O)CC21C` (stereo not drawn) the Potency was inconclusive: 3.16 µM [activator, partial curve, poor fit].
With `O=C1C2C=CC=CC2=NC(=S)N1CCN1CCC(=C(c2ccc(F)cc2)c2ccc(F)cc2)CC1` (stereo not drawn) the activation was inactive: -39.4%.
For `COC(=O)/C=C/c1ccc(O[C@@H]2O[C@H](CO)[C@@H](O)[C@H](O)[C@H]2O)cc1`, the activation was inactive: -8.04%.
In the case of `CCC(C)CNCC(=O)N1CCc2sccc2C1COc1cccc(C)c1` (stereo not drawn), the Potency is reported as inconclusive: 37.9 µM [activator, single point].
With `Nc1ccc(S(=O)(=O)Nc2nccs2)cc1` the activation was inactive: 18.4% and inactive: 0.333%.
With `COc1cccc(NCCC2(c3ccccc3)CC(C)(C)OC(C)(C)C2)c1` the Potency was active: 21.7 µM.
`COc1ccc(C(=O)Nc2ncc(-c3ccc(C(=O)O)cc3)s2)cc1` was tested, and the Potency was active: 10.7 µM.
With `CC1(CCOC2OC(CO)C(O)C(O)C2O)CCC23OC2(C1)C(O)CC1C(C)(C(=O)O)CCCC13C` (stereo not drawn) the activation was inactive: -13.7%.
With `CCNC(=O)[C@@H]1CCCN1C(=O)[C@H](CCCN=C(N)N)NC(=O)[C@H](CC(C)C)NC(=O)CNC(=O)[C@H](Cc1ccc(O)cc1)NC(=O)[C@H](CO)NC(=O)[C@H](Cc1c[nH]c2ccccc12)NC(=O)[C@H](Cc1cnc[nH]1)NC(=O)[C@@H]1CCC(=O)N1` ([pGlu]HWSYGLRP-NHEt) the activation was inactive: 5.86%.
